The values below come from article PMC4336329 (PLoS ONE, 2015).

Each structure is given as a SMILES string. Hit rate of the full screen: of about 310,000 compounds, about 2,200 (0.71%) showed an effect of 50% or more. The effect is printed as a negative number. This is one part of the list.

This assay deals with human ether-à-go-go-related gene (hERG) potassium channel (human, UniProt Q12809). As to the kind of experiment: primary screen, population patch clamp on CHO cells stably expressing hERG.
human ether-à-go-go-related gene (hERG) potassium channel, sequence (Q12809 whole entry, looked up): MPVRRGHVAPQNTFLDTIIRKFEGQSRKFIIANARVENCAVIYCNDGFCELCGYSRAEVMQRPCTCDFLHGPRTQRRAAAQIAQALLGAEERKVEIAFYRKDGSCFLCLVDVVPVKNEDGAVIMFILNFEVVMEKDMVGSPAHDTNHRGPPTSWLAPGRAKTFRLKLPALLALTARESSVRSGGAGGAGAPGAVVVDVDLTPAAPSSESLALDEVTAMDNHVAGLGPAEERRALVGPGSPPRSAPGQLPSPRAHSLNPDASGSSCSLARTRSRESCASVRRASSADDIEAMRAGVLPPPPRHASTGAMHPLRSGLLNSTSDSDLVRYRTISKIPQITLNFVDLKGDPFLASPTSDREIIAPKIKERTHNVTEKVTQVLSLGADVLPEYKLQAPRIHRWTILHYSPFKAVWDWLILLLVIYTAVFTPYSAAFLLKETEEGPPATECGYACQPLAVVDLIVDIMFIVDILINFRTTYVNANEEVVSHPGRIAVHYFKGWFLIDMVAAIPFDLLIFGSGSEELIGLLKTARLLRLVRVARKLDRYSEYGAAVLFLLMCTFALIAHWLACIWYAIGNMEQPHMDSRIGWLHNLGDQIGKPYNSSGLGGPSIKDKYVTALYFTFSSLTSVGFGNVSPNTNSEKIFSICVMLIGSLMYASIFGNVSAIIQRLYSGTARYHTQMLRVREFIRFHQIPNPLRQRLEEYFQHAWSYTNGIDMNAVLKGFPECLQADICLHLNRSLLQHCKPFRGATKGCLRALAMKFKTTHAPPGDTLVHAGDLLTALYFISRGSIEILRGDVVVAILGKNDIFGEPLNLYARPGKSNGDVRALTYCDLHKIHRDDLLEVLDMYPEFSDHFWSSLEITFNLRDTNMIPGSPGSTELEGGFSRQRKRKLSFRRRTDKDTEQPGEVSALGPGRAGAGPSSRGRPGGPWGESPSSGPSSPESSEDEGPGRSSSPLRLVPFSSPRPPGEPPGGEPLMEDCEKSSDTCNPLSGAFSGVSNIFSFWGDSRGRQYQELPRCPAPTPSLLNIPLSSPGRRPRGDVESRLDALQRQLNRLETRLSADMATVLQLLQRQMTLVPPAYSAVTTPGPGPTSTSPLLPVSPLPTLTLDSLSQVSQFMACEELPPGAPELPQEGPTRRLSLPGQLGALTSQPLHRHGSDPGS
Consider `CN(C)CCOc1ncnc2c1oc1ccccc12`, for which the “hERG current change (%, negative = inhibition) at 1uM” value was -3.75%.

In the case of `CC(=O)Nc1cccc(OCC(=O)NC(C)c2ccc3ccccc3c2)c1` (stereo not shown), the “hERG current change (%, negative = inhibition) at 1uM” value is on record as 15.5%.

As to `CCCCN(C(=O)c1ccc(S(=O)(=O)N(C)C)cc1)c1nc2ccccc2s1`, the “hERG current change (%, negative = inhibition) at 1uM” value came to 9.87%. The figure for `Cc1ccc(Sc2c([N+](=O)[O-])c(=O)n(C)c3ccccc23)cc1` is 13.9%; for `Cn1cccc1Cc1nnc(SCC(=O)Nc2cccc(F)c2)n1CCc1ccccc1` it is 5.02%. The figure for `CC(=O)Nc1ccc(S(=O)(=O)NCc2ccc(C)n2C)cc1` is 12.2%; for `CC1(C)CC(=O)C2=C(C1)Nc1ccccc1NC2c1ccc([N+](=O)[O-])cc1` (stereo not shown) it is 0.33%; for `Cc1cc(C)n2c(Br)c(CN3CC4CC(C3)c3cccc(=O)n3C4)nc2n1` (stereo not shown) it is 9.14%. In the case of `COc1ccc(OCCCN2CCc3ccccc3C2)cc1.Cl`, the “hERG current change (%, negative = inhibition) at 1uM” value is given as -0.308%. The figure for `O=S1(=O)C=CC(N2CCOCC2)C1` (stereo not shown) is -8.11%.

For `Cc1cc(C)c(NC(=O)CSc2nc3ncc(Br)cc3[nH]2)c(Cl)c1`, the “hERG current change (%, negative = inhibition) at 1uM” value worked out at 14.6%. Take `Br.O=C(CN1C2=NCCCN2c2ccccc21)c1cccc(Br)c1`: the “hERG current change (%, negative = inhibition) at 1uM” value was -28.6%. The figure for `CCN1CCCC1CNC(=O)C(=O)NCCc1ccc(OC)c(OC)c1` (stereo not shown) is 17.4%. For the compound `Cc1c(Cl)cccc1NC(=O)CSc1ncnc2c1cnn2CCc1ccccc1`, the “hERG current change (%, negative = inhibition) at 1uM” value was determined as 13.2%. The figure for `O=S(=O)(Nc1ccccn1)c1ccc(Br)cc1` is 4.98%; for `Cc1ccc(S(=O)(=O)N2CCC(C(=O)NCc3ccncc3)CC2)cc1` it is 2.01%; for `CN1CCN(c2ccc(S(=O)(=O)N3CCCCC3)cc2NC(=O)COc2ccc(F)cc2)CC1` it is -18.2%. The value for `O=C(O)Cc1sc(Nc2ccc(F)cc2)nc1-c1cccs1` was 8.55%. The figure for `Cc1nn(C)c(C)c1N=Cc1c(O)ccc2ccccc12` is 15.2%; for `CC1CCCCN1CC(=O)Nc1sccc1C#N` (stereo not shown) it is -7.59%; for `COc1ccccc1CNS(=O)(=O)c1ccc(Cl)s1` it is 12.4%. For the compound `CCOC(=O)N1CCN(c2cccc(C)c2C)CC1`, the “hERG current change (%, negative = inhibition) at 1uM” value is listed as 12.3%. The figure for `Cc1cc(-c2csc(NC(=O)c3ccc(=O)[nH]c3)n2)c(C)n1Cc1ccccc1` is 12.6%; for `CNC(=O)/C(C#N)=C/c1ccc(-c2ccc(Cl)cc2)o1` it is 20.7%; for `Cc1ccccc1C(=O)N1CCN(c2ccc(NC(=O)c3ccc4c(c3)OCO4)cc2)CC1` it is -4.49%.
